# Data reported in PubChem BioAssay AID743279 (National Center for Advancing Translational Sciences (NCATS), 2014).
# The campaign covered roughly 360,000 compounds. About 17,000 (4.7%) were called active. The shares of active, inactive and inconclusive entries below differ from those in the screen. Cut-off read from the data, not from the text of the source: active = activity change below about -50%; inconclusive = mostly about -30% to -49%; inactive = weaker than that.
# Experiment: qHTS for Inhibitors of Inflammasome Signaling: IL-1-beta AlphaLISA Primary Screen
# Conditions: THP-1 LPS/ATP IL-1B secretion, 16 h; at 57.5 µM, hits give low values
# Procedure, shortened: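 Secreted IL-1B measured by AlphaLISA bead assay after 16 h compound exposure of THP-1 cells; compounds (final up to 57.5 uM) added 1 h before LPS (250 ng/mL) and ATP (1.25 mM) stimulation; lower signal means less secretion.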
# % is set by controls: 0 for no effect and ±100 for the full control effect.
row,SMILES,activity change
1,Cc1csc(NC(=S)Nc2cccc(Cl)c2)n1,active: -99.2%
2,O=C(CCCl)N1CCCC2(CCCCC2)C1,inactive: 4.75%
3,CCOC(=O)CNC(=O)CSc1ncnc2c1cnn2Cc1ccccc1,active: -100%
4,O=S1(=O)C=C(Oc2ccc3ccccc3c2)c2ccccc21,inconclusive: -33.2%
5,COC(=O)c1c(-c2c(Cl)cccc2Cl)noc1NC(=O)NN1CCOCC1,inactive: 13.9%
6,Cc1ccccc1-c1nnn(CC(=O)Nc2ccc3c(c2)OCCO3)n1,inactive: 33.5%
7,Cc1ccc2c(c1)N(C(=O)CCC(=O)NCCN1CCOCC1)CCO2,inactive: -8.56%
8,COc1cccc(/C=C2\SC(=S)N(C(C)C(=O)NC3C=CS(=O)(=O)C3)C2=O)c1 (stereo not drawn),inconclusive: -45%
9,Cc1cccc(NC(=O)c2nc[nH]c2C(=O)N[C@@H](C)C(=O)OCc2ccccc2)c1,inactive: 11.1%
10,Cc1ccc(N2CN=C(c3ccccc3)NC2=S)cc1,inactive: 1.8%
11,Cc1ccc(S(=O)(=O)N(CC(=O)N=Nc2c(O)[nH]c3ccccc23)c2ccc(C)c(C)c2)cc1,inconclusive: -32%
12,CCOc1ccccc1NC(=O)c1nnn(-c2ccc3c(c2)OCCO3)c1N,inconclusive: -44.9%
13,O=C(OCc1cn([C@H]2CN(Cc3cccs3)[C@@H](c3ccc(Cl)cc3)C[C@@H]2O)nn1)c1ccccc1,inactive: 18.1%
14,Cc1ccccc1Nc1sc(C(=O)Nc2cccc(Cl)c2)c(N)c1C(N)=O,inconclusive: -39.2%
15,CCCn1c(SCC(=O)c2cc(OC)ccc2OC)nnc1-c1ccco1,inconclusive: -31.2%
16,O=C(CN1CCOCC1)Nc1ccc(Cl)c(Cl)c1,inactive: 28.2%
17,CC(OC(=O)CN1C(=O)NC2(CCCC2)C1=O)c1ccc(F)cc1 (stereo not drawn),inactive: -3.87%
18,Cc1ccccc1NCC(=O)N/N=C/c1c(C)c(C(=O)c2ccc(Cl)cc2)n2ccccc12,inactive: 0%
19,COC(=O)c1c(NC(=O)c2nc3ccccc3s2)sc2c1CCN(C(C)=O)C2,inconclusive: -45.1%
20,CCOC(=O)C(=CNc1cc(OC)ccc1-n1cccc1)C(=O)OCC,inconclusive: -46.1%
21,CCOC(=O)C(=O)N/N=C(/c1ccccc1)c1ccc(OC)cc1,inconclusive: -31.2%
22,Cc1ccc(-c2nnn(CC(=O)N(Cc3cccs3)C(C(=O)NC(C)(C)C)c3ccco3)n2)o1 (stereo not drawn),inconclusive: -37.7%

row,SMILES,activity change
1,COc1ccccc1/C=C1\C(=O)Nc2ccccc21,inactive: -16.3%
2,COc1cc(O)oc1C=Nc1ccc(Cl)cc1,inconclusive: -39.9%
3,CCCCCCNc1cc2n(c(=O)n1)CCc1cc(OC)c(OC)cc1-2,inconclusive: -33.4%
4,C=CCOC(=O)C1=C(C)NC(C)=C(C(=O)OCC=C)C1c1ccco1,inconclusive: -31%
5,CCOC(=O)C1CCN(S(=O)(=O)c2ccc3oc(=O)ccc3c2)CC1,inconclusive: -40.4%
6,Cc1ccc2nc(/C(C#N)=C\c3cc(C)n(-c4cccc([N+](=O)[O-])c4)c3C)[nH]c2c1,inconclusive: -48.3%
7,CC(C)Cc1nnc(NC(=O)C23CC4CC(CC(C4)C2)C3)s1,inactive: 38.3%
8,CSCCC(=O)Nc1cc(S(=O)(=O)N2CCOCC2)ccc1N1CCN(C)CC1,active: -72.2%
9,CCN1CCN(S(=O)(=O)c2ccc(C(=O)Nc3sc4c(c3C(N)=O)CCN(CC)C4)cc2)CC1,inactive: -13.7%
10,CCOC(=O)c1cc2c(ccn2-c2ccc(F)cc2)n1CC(=O)N(CC)CC,inconclusive: -32%
11,O=C(N/N=C/c1ccc(-n2ccnc2)cc1)c1cccs1,inconclusive: -43.1%
12,CC(=O)c1cccc(-c2ccnc3c2CC(C(=O)Nc2cccc(C(F)(F)F)c2)O3)c1 (stereo not drawn),inactive: 44.1%
13,COc1ccc(-c2cn(-c3ccc(C)c(Cl)c3)c(=S)[nH]2)cc1OC,inconclusive: -48.8%
14,COC(=O)[C@]12CCCCC=C1N(Cc1ccc3c(c1)OCO3)C(=O)[C@H](CC(=O)NCc1cccs1)C2,inconclusive: -32.4%
15,Cc1cc2nc(CS(=O)(=O)c3ccccc3)cc(=O)n2[nH]1,inactive: 5.57%
16,COc1ccc(CCNC(=O)Cc2ccc(NS(=O)(=O)c3ccc(F)cc3)cc2)cc1OC,inconclusive: -30.1%
17,O=C(CSc1nnc(-c2ccccc2)o1)Nc1ccccc1F,inconclusive: -34.8%
18,Cc1ccc(/C=C/C(=O)c2ccc(C)cc2)cc1,inconclusive: -36.2%
19,CCCCCCCCC(=O)N/N=C/c1cccc(Br)c1,active: -59.9%
20,O=C1NC[C@H](Cc2ccc(O)cc2)N(C[C@@H]2CCCN2C[C@H](Cc2ccccc2)N2C[C@H](Cc3ccc(O)cc3)N(CCc3ccccc3)C(=O)C2=O)C1=O,inconclusive: -38.4%
21,Cc1ccc(NC(=O)C23CCC(C)(C(=O)[C@H]2Br)C3(C)C)cc1 (stereo partly drawn),inactive: -2.17%
